Screen size: about 52,000 compounds; about 1,700 (3.3%) were called active. Rule as the data show it: active = survival mostly below about 52% (no sharp cut-off); inactive = mostly above about 56%. The list shows a part of the results.

The test has as its system Wild type. Kind of test: S. aureus survival, RN4220 and DeltatarO strains – OD600, teichoic acid synthesis inhibitors, primary screen (AID 463173). The conditions noted are these: S. aureus RN4220 wild type/DeltatarO growth, OD600, 18 h, hits give low values, screened at 18.75 µg/mL (by protocol).
Turning to `CCc1cccc(NC(=O)CCc2c(C)nc3c(-c4ccccc4)c(C)nn3c2C)c1`, the survival was inactive: 87%. With `CN1CCN(Cc2c(O)ccc3cc(-c4ccc(Cl)cc4)c(=O)oc23)CC1` the figure was inactive: 143%; with `COc1cc(OC)c(NC(=O)N2CCC(CN3CCOCC3)CC2)cc1Cl`, inactive: 89%; with `Cc1cc(C)cc(N2CCn3c2nc2c3c(=O)n(C/C=C/c3ccccc3)c(=O)n2C)c1`, inactive: 98%. As for `CCOc1cc(CNC(=O)C2CCN(c3nc4ccccc4[nH]3)CC2)cc(OCC)c1OCC`, the figure is active: -3%; as for `COc1cccc(CC(=O)Nc2ccc(-c3nc4ccccc4s3)cc2Cl)c1`, inactive: 73%; as for `COc1cccc(CNC(=O)c2c(C)oc3ncnc(N4CCOCC4)c23)c1`, inactive: 76%. With `COc1ccc(N2CCN(C(=O)C3Cc4ccccc4N3C(C)=O)CC2)cc1` (stereo not drawn) the figure was inactive: 85%; with `Cc1c(C)c2cc3c(c(C)c2oc1=O)OCN(CCc1ccccc1)C3`, inactive: 93%; with `Cc1ccc(C)c(NC(=O)CCOc2ccccc2)c1`, inactive: 94%. Take `COc1cccc(Nc2cc(C)nc3ccccc23)c1`: the survival is inactive: 125%. `Cc1c(Cl)cccc1NC(=O)CSc1ccc(-c2ccccn2)nn1`: the survival is inactive: 113%.

`Nc1cccc(NC(=O)CCC(=O)NCc2ccco2)c1`: the survival was inactive: 99%. With `Cc1ccc2nc(-c3ccc(F)cc3)c(NC(C)(C)CC(C)(C)C)n2c1` the figure was active: 14%; with `Cc1ccc2cccc(NC(=O)c3cccc4c(Br)cccc34)c2n1`, inactive: 134%. As for `COc1cccc(CNS(=O)(=O)c2ccc3c(c2)CC(C)N3C(=O)C2CCC2)c1` (stereo not drawn), the figure is inactive: 85%.

Turning to `O=C(Cn1c(=O)n(-c2ccc(Cl)cc2)c(=O)c2c3c(sc21)CCCCC3)Nc1cccc(Cl)c1`, the survival is inactive: 96%.

As for `O=C(NCc1cccc(Cl)c1)c1cc2c(s1)-c1ccccc1SC2`, the survival is inactive: 62%. As for `CN(C)S(=O)(=O)c1ccc(/C(O)=C2\C(=O)C(=O)N(Cc3cccnc3)C2c2cccnc2)cc1` (stereo not drawn), the figure is inactive: 105%; as for `COc1ccc(C)cc1NC(=O)C(=O)NCC(c1cccnc1)N1CCN(c2ccccc2F)CC1` (stereo not drawn), inactive: 79%. Take `CCOC(=O)N1CCN(C(=O)Cc2cccc3ccccc23)CC1`: the survival was inactive: 110%. With `Cc1cc(C)c2nc(N3CCCC(C(=O)NCc4ccccc4F)C3)sc2c1` (stereo not drawn) the figure was inactive: 89%; with `Cc1ccc(C(=O)NC2CC(C)(C)NC(C)(C)C2)cc1`, inactive: 114%.

Consider `COc1ccc(N2CCN(C(=O)c3ccc4c(c3)N(Cc3cccc(Cl)c3)C(=O)c3ccccc3S4(=O)=O)CC2)cc1`, for which the survival is inactive: 82%.

`Cc1ccccc1C(=O)Nc1cc2c(cc1N1CCCCC1)n(C)c(=O)n2C`: the survival was inactive: 62%.

On to `CCn1c(=O)n(-c2ccc3c(c2)OCO3)c2nc(-c3cccc(OC)c3OC)nc(C(N)=O)c21`, for which the survival was inactive: 73%.

For `O=C1N/C(=N\S(=O)(=O)Cc2ccccc2)S/C1=C\c1ccco1`, the survival was inactive: 106%. `CCCn1cc(S(=O)(=O)c2ccc(C)c(C)c2)c(=O)c2cc(F)c(N3CCC(C)CC3)cc21`: the survival was inactive: 73%. As for `Cc1ccc(C(=O)CSc2nnnn2C2CCCC2)cc1C`, the figure is inactive: 108%. With `S=C(NCCN1CCCCC1)Nc1ccccc1` the figure was inactive: 108%; with `CCOc1ccccc1N(C)C(=O)c1cc2c(s1)-c1ccccc1OC2`, active: 13%. As for `CC(C)OCCCNC(=O)Cc1ccc(NC(=O)N2CCCCc3ccccc32)cc1`, the figure is inactive: 77%; as for `CCc1ccccc1NC(=O)Cn1c(=O)n(-c2cccc(C)c2)c(=O)c2c1c1cc(OC)ccc1n2C`, inactive: 59%. For the compound `CCOC(=O)CC(NC(=O)c1cc2c(=O)n3cccc(C)c3nc2s1)c1ccc(OCC)c(OC)c1` (stereo not drawn), the survival is inactive: 138%. On to `COc1ccccc1NC(=O)CC1S/C(=N\N=C(/C)c2ccccc2)NC1=O` (stereo not drawn), for which the survival is inactive: 130%. For `Cc1ccc(NC(=O)Cn2c(=O)n(CC(=O)NCCc3ccccc3)c(=O)c3ccccc32)cc1C`, the survival was inactive: 76%. With `COc1ccc(-c2noc(CCC(=O)Nc3cccc(C)c3C)n2)cc1OC` the figure was inactive: 88%; with `Cc1ccc(S(=O)(=O)c2cn(CC(=O)Nc3ccc(F)cc3)c3cc4c(cc3c2=O)OCO4)cc1`, inactive: 57%; with `CCc1cccc(NC(=O)Nc2cn(C)c(=O)c3ccccc23)c1`, inactive: 78%. As for `COc1cccc(NC(=O)C2CCN(S(=O)(=O)c3c(C)noc3C)CC2)c1`, the figure is inactive: 82%. With `Cc1ccc(C(=O)COC(=O)c2cc(-c3cccs3)nc3ccccc23)cc1`, the survival is inactive: 76%. For the compound `Cc1c(C(=O)Nc2ccc(F)c(F)c2)oc2ccc(S(=O)(=O)N3CCC4(CC3)OCCO4)cc12`, the survival is inactive: 58%. As for `O=C(Nc1c(-c2ccc(F)cc2)nc2ccccn12)c1cccc(F)c1`, the figure is inactive: 136%; as for `CC(=O)Nc1ccc(NS(=O)(=O)c2ccc(Cl)s2)cc1`, inactive: 84%. `COc1ccccc1CNC(=O)CN(c1ccc(C)cc1)S(=O)(=O)c1c(C)noc1C`: the survival was inactive: 77%.

Consider `Cc1nn(-c2ccc(F)cc2)c(-n2cccc2)c1C(=O)N1CCN(c2ccccc2F)CC1`, for which the survival was inactive: 71%. `Cc1oc(C(C)(C)C)cc1C(=O)NCCO`: the survival is inactive: 117%. As to `COc1ccc(OC)c(NC(=O)c2cnc(N3CCCC3)nc2C)c1`, the survival was inactive: 84%. Turning to `CCNC(=S)N1CCC(NC(=O)C23CC4CC(CC(C4)C2)C3)CC1`, the survival was inactive: 101%.

`Cc1ccc(C2C=C(c3ccc(F)cc3)Nc3nc(CCCO)nn32)cc1` (stereo not drawn): the survival is inactive: 91%. With `Nc1ccc2c(c1)ncn2CCO` the figure was inactive: 115%; with `CCCCc1ccc(NS(=O)(=O)c2ccc(N3CCCCS3(=O)=O)cc2)cc1`, inactive: 73%; with `CCOc1ccc(C(=O)c2cn(Cc3ccccc3)c3c(F)cc(F)cc3c2=O)cc1`, inactive: 95%. As for `O=C(O)c1snc2c(=O)[nH]cnc12`, the figure is inactive: 105%. With `CCSc1ncc(Cl)c(C(=O)N(Cc2ccccc2)Cc2ccco2)n1` the figure was inactive: 123%; with `CCCOc1ccc(NC(=O)CC2C(=O)N(c3ccc(C)cc3)C(=O)N2C2CCCC2)cc1` (stereo not drawn), inactive: 81%.

In the case of `O=C(CN1C(=O)CCc2cc(S(=O)(=O)N3CCOCC3)ccc21)NCc1ccccc1Cl`, the survival was inactive: 65%.

On to `O=C(CSc1nc2c([nH]c3ccccc32)c(=O)n1-c1ccc(F)cc1)NCc1ccco1`, for which the survival was inactive: 88%.

These data come from PubChem BioAssay AID463173 (ICCB-Longwood Screening Facility, Harvard Medical School, 2010).
